This is an account of results in the supplement of paper PMC3724861.

This is one part of the list.

For this test, the system named is T1, Caupolican (Caup) homeodomain DNA-binding domain.
T1 sequence: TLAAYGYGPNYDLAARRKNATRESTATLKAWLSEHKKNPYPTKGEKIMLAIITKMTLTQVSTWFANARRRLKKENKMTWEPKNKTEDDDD
The experiment in a line: PBM E-score (8-mer, recovered from the published 9-mer minima) (E-score (dimensionless, -0.5 to 0.5)); Drosophila protein; higher = stronger relative binding preference, active = 0.31 or more. Put shortly: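 Caup's homeodomain DNA-binding domain (residues 214-303) was made by in vitro transcription and translation and applied at 100 nM to custom-designed protein binding microarrays. Each value is an enrichment score that gives relative binding preference for a short DNA word, with higher meaning stronger. The 8-mer values were recovered from published 9-mer scores, each of which was the minimum of its two constituent 8-mer scores. A cutoff of 0.31 marks candidate sites.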
For TAAGCCGA, the “PBM E-score” value is inactive: -0.0833.
On to CCCACACA, for which the “PBM E-score” value is inactive: -0.153.
The value for ACGACCTG was inactive: -0.0314; that for ACTTACCC was inactive: -0.0346.
The value for AGCGTCAG was inactive: -0.0242; that for ACTTCGTA was at least 0.0633.
As for CCTGATGA, the “PBM E-score” value was inactive: -0.016.
The value for GACAACGC was inactive: 0.152; that for AAGAATCG was inactive: 0.0339.
The value for ATGAAGGA was at least 0.0485; that for GCCACCCA was inactive: -0.168.
The value for ATCAATTG was inactive: 0.129; that for ACCTCGCG was inactive: -0.0928.
Take CTCTTTGA: the “PBM E-score” value was inactive: -0.0801.
For the sequence CTGGATGC, the “PBM E-score” value was inactive: -0.13.
For the sequence GAGTCATC, the “PBM E-score” value was inactive: -0.092.
On to AACTCCTT, for which the “PBM E-score” value is at least 0.0649.
Consider CGCTGAAG, for which the “PBM E-score” value is inactive: -0.19.
The value for ACCTACCG was inactive: -0.0767.
The value for ACGTGCAG was inactive: -0.0625.
For the sequence CAATTGAA, the “PBM E-score” value was inactive: 0.0207.
The value for GTTATGAA was inactive: 0.132; that for CCGTTGCA was inactive: -0.0577.
The value for ACCTTGCG was inactive: -0.089.
Take CTACCGGC: the “PBM E-score” value is inactive: -0.0933.
ATTCGGTG: the “PBM E-score” value was inactive: 0.0946.
The value for AGAGTCCA was inactive: -0.0854; that for AAGCTACT was inactive: 0.0372.
The value for AAATCCGT was inactive: 0.0968.
The value for GACTCTCC was inactive: -0.127; that for GACTGACA was inactive: 0.154; that for TTCCGGAA was inactive: -0.0746.
Take CAAAGAAA: the “PBM E-score” value was inactive: -0.0387.
Regarding ACCCCATG, the “PBM E-score” value was inactive: -0.0338.
Take CTGCAAGA: the “PBM E-score” value was inactive: -0.108.
The value for ATAACCAT was inactive: 0.0905.
With GACAGAAC, the “PBM E-score” value is inactive: 0.084.
The value for ACCCCGGG was inactive: -0.172; that for ATTATCGG was inactive: 0.0382; that for GGGAGTCA was inactive: -0.111.
Regarding GCTCCATA, the “PBM E-score” value was inactive: -0.111.
The value for CGTGCTCC was inactive: -0.0113.
The value for AATCCACC was inactive: -0.0363; that for ATAACGTG was inactive: 0.103; that for ACACTGGT was at least 0.149.
The value for CCGTACAA was inactive: 0.152.
Take CGAGCCAG: the “PBM E-score” value was inactive: -0.0646.
The value for CAAATGGA was inactive: 0.0816; that for AGCCTATC was inactive: -0.158; that for CAAGCCAG was inactive: -0.0282.
The value for ACTGTACG was inactive: 0.0534; that for CGGTCACC was inactive: -0.124.
ATTTTGAG: the “PBM E-score” value was inactive: 0.0566.
With AGCGGGCA, the “PBM E-score” value was inactive: -0.233.
Turning to AAGCTAAA, the “PBM E-score” value is inactive: 0.034.
The value for CAGTTGCG was inactive: -0.0806.
In the case of ACAGTTTG, the “PBM E-score” value is inactive: 0.0438.
On to ACGATTAT, for which the “PBM E-score” value was inactive: 0.144.
The value for AGCAGGTG was inactive: -0.0416; that for AACCGCCT was at least -0.0604; that for GCGCCCCA was inactive: -0.31.
The value for AACAGCTC was inactive: -0.0405.
AGGAAATG: the “PBM E-score” value was inactive: 0.0222.
The value for TAAGTAAA was inactive: 0.0166; that for GCTGGTTA was inactive: 0.1; that for CATACCAG was inactive: 0.0479.
AAAGTTAG: the “PBM E-score” value is inactive: 0.0333.
The value for ATGTCGCC was inactive: 0.208.
The value for CACAAAAA was inactive: 0.133; that for ATGTGCAA was inactive: 0.17; that for CACTAGCC was inactive: -0.14.
As for ATATGAAG, the “PBM E-score” value was inactive: 0.029.
The value for CGGCAATC was inactive: -0.0727; that for GAAAGACA was inactive: 0.163; that for CGCATGGC was inactive: -0.16.
The value for AGAGCAAC was inactive: 0.0211.
The value for AGTATTTG was inactive: 0.111; that for GATGACGC was inactive: -0.132; that for CCGGATCG was inactive: -0.121.
In the case of ACGTAACT, the “PBM E-score” value was inactive: 0.0508.
The value for ATTGCGGG was inactive: -0.0884; that for AACGTTAT was inactive: 0.167.
For GGTCGGGA, the “PBM E-score” value is inactive: -0.15.
The value for CTCATTCC was inactive: -0.0174; that for ACATACCA was inactive: 0.248.
The value for CCGGGTTA was inactive: -0.1; that for AGAACTCG was inactive: -0.0449; that for CAGGTTTC was inactive: 0.0145.
The value for GCAGTTCA was inactive: -0.106.
For the sequence CGTTCTGA, the “PBM E-score” value is inactive: 0.00408.
For the sequence AAGACCGA, the “PBM E-score” value was at least 0.0146.
The value for AGCGCTAT was inactive: 0.0173; that for ATTATCCG was inactive: -0.0156.
The value for AAGTCAAT was at least 0.098.
The value for ATTCCTAC was inactive: 0.107; that for CTGTGAGA was inactive: -0.00857.
For AAGCGCTC, the “PBM E-score” value is inactive: -0.0742.
The value for GTGTGCCA was inactive: -0.102; that for CCGGAGGC was inactive: -0.277.
With CTCTCACA, the “PBM E-score” value is inactive: -0.0652.
The value for CGTTACTA was inactive: 0.144; that for AGTCACGA was inactive: 0.0855; that for CTCCATGA was inactive: 0.00385.
The value for AAGCGTAA was inactive: -0.0109; that for AGACATCC was inactive: 0.145.
The value for AGCCATAA was inactive: 0.0213.
With GAGACTTA, the “PBM E-score” value was inactive: -0.0631.
Turning to TACTGCGA, the “PBM E-score” value is inactive: -0.0185.
Turning to CACGGACA, the “PBM E-score” value is inactive: 0.246.
The value for AGGCCCCT was inactive: -0.232; that for ATTCATTC was inactive: 0.128.
Take CATTTTAC: the “PBM E-score” value was inactive: 0.169.
